Data from the supplement of paper PMC7335073.
In all, about 4,100 sequences were measured (“relative CpG methylation activity (normalised to average over all NNNCGNNN flanks)”: median about 0.87, highest 2% from about 2.4 on). Some of the results follow.

The sequences below were run against DNMT3A catalytic domain (mouse) (UniProt O88508) (assay: relative CpG methylation activity (normalised to average over all NNNCGNNN flanks) (relative (1 = mean)); higher = more methylation of the central CpG). Settings: system: in vitro, murine catalytic domain; CpG state: hemimethylated substrate pool; residues: 608-908.
Protocol: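 Deep enzymology: a pool of dsDNA substrates with a central CpG flanked by 10 random nucleotides on each side was methylated by the murine DNMT3A or DNMT3B catalytic domain (0.8 mM SAM, 37 °C, 60 min). Methylation was then read out by hairpin ligation, bisulfite conversion and NGS. Values are the average methylation of each NNNCGNNN context (±3 flanks; the outer flanks are random and averaged over), normalised to the overall mean, so 1 = average activity.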

Sequence	relative CpG methylation activity
GCACGACT	1.18
GCCCGTTT	0.909
CGACGTGC	0.326
CCTCGAAA	1.21
TTTCGCGT	1.33
AATCGCTT	1.05
AAGCGTGC	0.148
CGACGCAC	0.839
GTCCGCGT	1.71
CGTCGCAG	0.432
ACCCGGAG	0.341
CTTCGATA	1.19
TGGCGCGC	0.482
TTACGGCA	1.83
TACCGATC	1.47
GGACGCTC	1.28
GTTCGCTG	1.46
CCGCGACG	0.894
CATCGCCT	1.25
TCCCGGAT	0.748
CCCCGACC	1.63
GCCCGCAA	0.822
GTTCGCCA	1.76
ACACGCCA	2.02
GTGCGTTC	1.2

Sequence	relative CpG methylation activity
ACCCGGAT	0.573
ACACGGCG	1.02
ACGCGTAA	0.973
TCGCGATT	0.833
TACCGCGG	0.413
AACCGCAA	0.888
ATACGCCA	2.6
CGGCGGGA	0.484
TGGCGATA	0.575
CTTCGTAG	1.01
GGCCGAAC	0.982
CGTCGAAA	0.684
GTTCGCGA	1.03
TAGCGATG	0.185
GATCGTAC	0.376
GAGCGGTC	0.845
AGTCGTCA	0.662
AAACGTGG	0.174
CTTCGATG	0.526
TCGCGGGA	0.846
CATCGTAT	0.191
TGACGTTA	0.6
TCACGAAC	1.69
CTCCGCGA	1.63
GCGCGACG	0.797

Sequence	relative CpG methylation activity
TTGCGATG	0.833
TTCCGCGT	1.64
ATCCGACG	1.55
TGTCGTAT	0.455
CCGCGGCT	1
GGACGGTA	0.661
CGGCGTAA	0.615
ACACGCAG	0.72
AGGCGTGC	0.36
TAGCGGAG	0.152
ACCCGTTT	1.09
CCACGGAA	1.24
TATCGTCC	1.31
GGTCGCAC	0.808
CTTCGCTA	1.66
TCGCGCGG	0.476
CTTCGGTA	0.721
AAGCGGCG	0.349
TGCCGATA	0.785
CGACGAGA	0.567
CGGCGTGC	0.221
TAGCGTCC	1.13
CTCCGCTG	1.82
CGTCGCAT	0.8
GATCGAAC	0.6

Sequence	relative CpG methylation activity
GGCCGTAC	0.986
TACCGTTG	0.4
ACCCGAAA	1.34
TCCCGAAG	0.61
CGTCGAAG	0.31
TCCCGGCC	1.53
GAACGGGA	0.926
GATCGGTA	0.107
CGTCGCTT	1.8
GGACGTGG	0.0641
CGCCGATC	1.11
TCGCGTGG	0.5
AGCCGAAC	1.25
GACCGCAA	0.849
CAGCGCGT	0.305
AGGCGAAG	0.25
GTACGTCA	2.5
AGTCGTAG	0.0575
CTGCGAGT	1.48
ATTCGCGT	0.75
CAACGCTC	1.36
CTACGACG	1.5
GCGCGGGA	0.556
CGGCGGCC	0.805
AATCGGCT	0.417

Sequence	relative CpG methylation activity
CGACGGTT	0.546
TACCGCAT	0.802
AGTCGTGC	0.343
AGGCGACA	0.638
ATCCGTGG	0.315
TTGCGCCC	2.61
GACCGATT	0.895
ATGCGCGC	1.5
TCCCGGTC	1.11
GCCCGGTT	1.03
TGCCGTAT	0.586
GCCCGCTT	1.72
ATACGGAA	1.75
GGACGCTA	1.09
GGTCGACG	0.122
AGACGGAT	0.485
GAACGCGA	0.441
CTGCGCGG	0.536
AGGCGTTA	0.256
GCTCGCAT	1.17
ACACGGTC	1.41
CGGCGTCG	0.774
TGTCGTGG	0.204
CCCCGAAG	0.825
TGGCGGCA	0.395

Sequence	relative CpG methylation activity
GTTCGGGG	0.025
TGACGCAT	0.9
TCGCGTCA	1.2
TAACGAGG	0.426
TCCCGGAA	1.15
CCTCGTTT	0.481
ACTCGTTG	0.62
GTTCGAAA	0.915
TCACGATA	1.06
ACGCGAGA	0.663
ACTCGGCG	1.24
CGTCGTTC	0.509
TACCGGTG	0.22
CTTCGTTT	1.1
TCGCGAAC	0.985
AAACGCCA	1.15
CATCGATC	0.837
TTTCGCGG	0.159
GGGCGGTT	0.476
GGGCGCTT	1.67
TCGCGGAT	0.281
CCGCGGCA	0.866
TCGCGATC	1.01
AATCGTAG	0.171
ACACGCGC	1.64

Sequence	relative CpG methylation activity
TTCCGTTG	1.18
ATACGTGC	1.05
GTTCGACC	0.821
AGCCGAAA	0.828
CCTCGCTC	2.03
AATCGACT	0.417
ACTCGAGA	0.634
TAGCGCAG	0.248
ACCCGCTA	1.22
AGACGCGA	0.543
GAGCGCAG	0.388
ACACGCCG	1.92
CACCGACA	0.997
AAACGATA	0.538
TTACGGGT	1.65
TCCCGCTA	1.67
TTGCGTAA	1.77
AGCCGGTA	0.514
CCTCGCGC	1.11
TGCCGGTC	0.693
GTACGATA	1.75
GCGCGTGG	0.25
CCACGAAC	1.73
TTACGATC	2.17
TTACGCCG	2.29

Sequence	relative CpG methylation activity
GGCCGGGA	0.878
AGACGGCT	1.08
TGCCGAAG	0.484
GCTCGTAG	0.494
CTCCGTCT	1.84
GCTCGCCC	1.8
CAACGAGA	0.542
CCGCGGTA	0.625
CAACGAGG	0.472
TTACGAAG	1.32
GTCCGAGC	2.16
GTTCGCAT	1.26
CAGCGGGG	0.352
GGTCGTGT	0.0893
GTACGAGT	1.55
AAGCGTGG	0.153
TGACGTGC	0.393
ACCCGAAC	1.68
CCCCGCCT	2.14
TTACGGAC	2.21
CCACGGGA	0.786
CTACGGCC	1.99
TGTCGGAC	0.385
GTACGATT	1.67
CCGCGTCC	1.29

Sequence	relative CpG methylation activity
GAGCGGAG	0.268
GGCCGCTC	1.64
GGACGTCA	1.07
CGTCGCTG	0.963
CGGCGAAG	0.198
TTTCGTTG	0.873
TTCCGGCT	1.83
ATACGTAA	2.01
TGACGCAG	0.352
AGCCGTCT	1.08
CCCCGGCA	1.45
CTCCGATG	0.927
GCTCGAAT	0.774
AACCGGGT	0.688
TTACGTAC	2.06
CCCCGCTG	1.21
GCTCGTGC	0.519
AACCGGTT	0.478
TTGCGTAG	1.15
